Publication PMC4336329 (PLoS ONE, 2015)
The whole screen tested about 310,000 compounds, of which about 14,000 (4.5%) showed an effect of 50% or more. Effects have a minus sign here. The list shows a part of the results.

Target: human ether-à-go-go-related gene (hERG) potassium channel (human, UniProt Q12809)
Experiment: primary screen, population patch clamp on CHO cells stably expressing hERG
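Further: peak tail current of the secondary pulse compared with the same well before compound.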

Chain of human ether-à-go-go-related gene (hERG) potassium channel (Q12809 whole entry, looked up): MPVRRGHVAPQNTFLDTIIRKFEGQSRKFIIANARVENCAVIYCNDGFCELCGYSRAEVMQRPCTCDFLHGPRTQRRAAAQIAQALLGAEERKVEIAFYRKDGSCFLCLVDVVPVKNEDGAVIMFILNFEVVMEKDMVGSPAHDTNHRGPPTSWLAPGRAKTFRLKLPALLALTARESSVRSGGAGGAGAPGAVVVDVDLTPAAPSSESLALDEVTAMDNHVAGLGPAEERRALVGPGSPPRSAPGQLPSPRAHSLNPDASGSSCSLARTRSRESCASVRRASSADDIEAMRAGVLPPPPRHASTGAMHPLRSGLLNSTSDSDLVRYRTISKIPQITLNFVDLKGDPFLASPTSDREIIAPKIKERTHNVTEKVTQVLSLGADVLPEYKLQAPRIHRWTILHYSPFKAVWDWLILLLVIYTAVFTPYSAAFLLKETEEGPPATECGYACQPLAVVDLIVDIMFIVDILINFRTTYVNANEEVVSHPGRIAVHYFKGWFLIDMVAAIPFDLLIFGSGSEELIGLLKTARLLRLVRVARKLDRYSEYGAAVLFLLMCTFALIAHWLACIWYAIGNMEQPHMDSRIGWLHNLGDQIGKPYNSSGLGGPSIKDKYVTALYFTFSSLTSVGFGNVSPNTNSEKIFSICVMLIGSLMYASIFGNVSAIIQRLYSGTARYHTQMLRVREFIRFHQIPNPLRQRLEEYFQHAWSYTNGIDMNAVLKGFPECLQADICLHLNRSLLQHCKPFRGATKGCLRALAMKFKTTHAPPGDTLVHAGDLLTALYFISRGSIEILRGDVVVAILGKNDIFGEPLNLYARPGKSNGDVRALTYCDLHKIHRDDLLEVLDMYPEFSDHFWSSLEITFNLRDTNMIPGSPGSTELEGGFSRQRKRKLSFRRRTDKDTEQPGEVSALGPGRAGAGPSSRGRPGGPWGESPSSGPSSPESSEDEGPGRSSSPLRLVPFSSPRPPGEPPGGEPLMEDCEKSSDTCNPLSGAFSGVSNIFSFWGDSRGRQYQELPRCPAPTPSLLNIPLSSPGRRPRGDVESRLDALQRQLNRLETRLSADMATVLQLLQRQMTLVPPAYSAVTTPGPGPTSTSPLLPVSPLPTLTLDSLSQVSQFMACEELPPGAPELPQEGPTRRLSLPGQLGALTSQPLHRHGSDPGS

Compound | hERG current change (%, negative = inhibition) at 10uM [%]
Cc1ccc(N(CC(=O)NC(C)(C)C)C(=O)CCC(=O)Nc2nccs2)cc1C | -1.07
O=[N+]([O-])c1cc(C(F)(F)F)ccc1SCC(O)CO (centres unmarked) | 9.6
Nc1cccc2nc3ccccc3cc12 | -24.7
Cc1cc(C(=O)Nc2ccccc2C(=O)N2CCCCC2)ccc1[N+](=O)[O-] | -11.9
COc1cc(/C=N\NC(=O)c2ccc(-c3ccccc3)cc2)cc(OC)c1O | -3.44
COc1ccc(/C=N/NC(=O)c2ccc(CSc3nc(C)cc(C)n3)cc2)c(OC)c1OC | -7.96
O=C(COC(=O)CNC(=O)c1ccccc1)Nc1ccc(S(=O)(=O)N2CCOCC2)cc1 | 11.8
Cc1cc(C)n2nc(CC(=O)NC3CCCC(C)C3C)nc2n1 (centres unmarked) | 1.78
CSc1ccc(/C=N/n2c(C)cc(C)cc2=O)cc1 | -2.09
O=C(CN1C(=O)NC2(CCc3ccccc3C2)C1=O)Nc1ccc(F)cc1 (centres unmarked) | -5.75
O=C(NC(Cc1ccccc1)C(=O)O)C1CCCCC1 (centres unmarked) | 2.22
O=C(CSc1nc(-c2ccccc2Cl)ns1)NCc1ccc2c(c1)OCO2 | 7.69
Cc1ccc(-c2nc(C)c(C(=O)O)s2)cc1 | 22.5
C=CCN1C(=O)C2(C(C(=O)OCC)=C(N)Oc3c2c(=O)oc2ccccc32)c2ccccc21 (centres unmarked) | 21.5
Cn1c(CCN2CCCCC2)nc2cc(NC(=O)Nc3ccccc3)ccc21 | -28
CCCCn1c(N)c(N(CCC(C)C)C(=O)CSc2nnc(C)s2)c(=O)[nH]c1=O | 0.187
Cc1ccc(Cl)cc1NC(=O)C1CCN(S(C)(=O)=O)CC1 | 18.7
O=C(CN1CCN(S(=O)(=O)c2ccccc2)CC1)Nc1ccccc1C(=O)NC1CC1 | -27.1
COCCn1c(=O)[nH]c(=O)c2cc(C(=O)c3cc(OC)ccc3O)cnc21 | 5.69
Cc1ccc(C)c(C(=O)c2ccccc2NC(=O)c2ccccn2)c1 | -6.35
O=C(Nc1ccccc1C(F)(F)F)N1CCCCCC1 | 8.71
Cc1c(NC(=O)CN2C(=O)NC(C)(c3ccccc3Cl)C2=O)c(=O)n(-c2ccccc2)n1C (centres unmarked) | 8.24

Compound | hERG current change (%, negative = inhibition) at 10uM [%]
CCOC(=O)c1c(C)nc2c(c1-c1ccccc1)C(=O)CCC2 | -10.6
CCc1noc(C)c1C(=O)Nc1cc(Cl)ccc1N1CCCC1 | 4.72
CC(=O)N1N=C(C)CC1c1ccc(O)cc1 (centres unmarked) | 15.2
COc1cccc(NC(=O)CN2CCN(c3ccccc3F)CC2)c1 | -9.18
COC(=O)Cc1ccc(NC(=S)N2CCCC(CO)C2)cc1 (centres unmarked) | -63.2
COc1ccc(/C=C(\C)C(=O)c2c(C)cc(C)[nH]c2=O)cc1 | 12.9
Cc1cc(C)n2nc(S(=O)(=O)Nc3c(Cl)cccc3Cl)nc2n1 | 7.51
O=C(COc1ccc2ccc(=O)oc2c1)N1CC[C@@]2(O)CCCC[C@H]2C1 | 8.39
COc1cc(NC(=O)c2ccc(C)cc2)ccc1NC(=O)c1cc2ccccc2o1 | 15.2
O=S(=O)(c1ccc(F)cc1)N1CCN(c2ncnc3c2cnn3-c2ccccc2)CC1 | 10.2
COc1cccc(N2CCN(C(=O)CCC(=O)N3CCOc4ccc(C)cc43)CC2)c1 | -30.3
O=C(Cn1cnnn1)NC1CCCN(Cc2ccccc2F)C1 (centres unmarked) | 11.5
CC(=O)Nc1ccc(C(=O)Nc2ccc(S(=O)(=O)Nc3nccc(C)n3)cc2)cc1 | 15.9
NC(=O)N/N=C/c1ccccc1OC(=O)c1ccccc1Br | 14.2
CC(=O)Nc1cc(C(=O)N2CCC3(CC2)OCCO3)ccc1S(=O)(=O)c1ccc(Cl)cc1 | -12.1
COc1ccc(OC)c(S(=O)(=O)N2CCC(C(=O)NC(C)c3ccccc3)CC2)c1 (centres unmarked) | -17.6
COc1ccc(CCNC(=O)CC(C)S(=O)(=O)c2ccc3c(c2)NC(=O)CO3)cc1OC (centres unmarked) | 5.88
O=C(OCCOCCN=C1NS(=O)(=O)c2ccccc21)c1ccncc1 | 12.2
CCO/C=C1\SC(=S)N(c2ccc(Cl)cc2)C1=O | 18.1
Cc1nc2sc(C(c3ccco3)N3CCOCC3)c(O)n2n1 (centres unmarked) | 5.07
O=C(Nc1ccc2snnc2c1)N1CCCCC1 | 11.9
N#Cc1c(N)n(CCc2ccc(F)cc2)c2nc3ccccc3nc12 | 27.1

Compound | hERG current change (%, negative = inhibition) at 10uM [%]
CC(=O)C1=C(O)C(=O)N(Cc2ccco2)C1c1cccc(F)c1 (centres unmarked) | 19.1
Cc1cccc2cc(C#N)c(N3CCC(O)CC3)nc12 | 0.861
O=C(CN1CCN(S(=O)(=O)N2CCCCCC2)CC1)Nc1cc(Cl)ccc1Cl | 7.48
CCOc1ccc(C2C=C(c3ccc(F)cc3)Nc3ncnn32)cc1 (centres unmarked) | -27.7
O=C(C1CC1)N(Cc1ccco1)c1nc(-c2ccccc2)cs1 | -8.62
O=C(Nc1cccc(Cl)c1)N1N=CCC1c1ccccc1 (centres unmarked) | -6.34
CN1CCN(c2ccc(Cl)cc2NC(=O)c2ccc(S(=O)(=O)N(C)C)cc2)CC1 | 1.58
O=C(CCc1c[nH]c2ccccc12)NCc1ccco1 | 32.4
CCOC(=O)c1c(NC(=O)Cn2cnc3scc(-c4ccc(C)cc4)c3c2=O)sc(C)c1C | -14.5
CCCN(C(=O)c1ccc(S(=O)(=O)N2CCCC2)cc1)C1CCS(=O)(=O)C1 (centres unmarked) | 7.16
S=C(Nc1cccc(Br)c1)N1CCn2cccc2C1c1cccnc1 (centres unmarked) | -4.95
CCc1nnc(NC(=O)CN2C(=O)N(C)C3(CCCCC3)C2=O)s1 | -0.055
COc1ccc(-c2cc(-c3ccc(Br)cc3)nc3ncnn23)cc1OC | -34.4
Cc1ccc(-c2nc(N3CCOCC3)sc2C(=O)N2CCCCC2)cc1 | 0.618
CCc1ccc(N2C(=O)NC(=O)/C(=C/c3cccn3CCOc3ccc(C)cc3)C2=O)cc1 | 5.37
CCn1c(SCC(=O)N2CCN(c3ccccc3)CC2)nnc1-c1cc2cc(Cl)ccc2o1 | -9.93
Cc1cnc(C(=O)OCC(=O)Nc2ccc(OCc3ccccc3)cc2)cn1 | 9.67
Cc1cc(OCCn2cc(/C(N)=N/O)c3ccccc32)ccc1Cl | 0.721
CCOc1nc(Nc2ccc([N+](=O)[O-])cc2)nc(NC(C)(C)C)n1 | 12.2
COc1cccc2c1Oc1ncccc1N(C(=O)CCC(=O)NCc1ccccc1F)C2 | -22.8
CC(C)Cc1cc(C(=O)Nc2cc(C(F)(F)F)ccc2Cl)no1 | 13.7
CN(C)c1ccc(/C=N/NC(=O)C2COc3ccccc3O2)o1 (centres unmarked) | -4.21

Compound | hERG current change (%, negative = inhibition) at 10uM [%]
CCCCCCN(C(=O)CCCCCN1C(=O)NC(c2ccc([N+](=O)[O-])cc2)C(C(=O)OCc2ccccc2)=C1C)C(C(=O)NCCCC)c1ccc(OCC(=O)OC)c(C(=O)OC)c1 (centres unmarked) | -16.6
CCOC(=O)C=Nc1c(N)n(C)c(=O)n(C)c1=O | -3.14
Cc1nc(SCc2ccc(C(=O)O)cc2)nc2c1CCCC2 | -2.64
CNC1(C(N)=O)CCNCC1 | 7.53
CCOC(=O)C1CCCN(CCC(=O)Nc2cc(OC)ccc2OC)C1.Cl (centres unmarked) | -12.2
CC(c1ccc(F)cc1)n1cc(C(=O)NCc2ccccn2)nn1 (centres unmarked) | 7.73
CCOC(=O)c1c(C)[nH]c(C(=O)COC(=O)[C@H](C)NC(=O)c2ccccc2Cl)c1C | -21.8
COc1cc2c(cc1OC)C1Cc3ccc(OC)c(OC)c3C[N+]1([O-])CC2 (centres unmarked) | 10.8
Cn1nnnc1SCCOc1ccc(C#N)cc1 | -16.5
Cc1ccc(F)c(NC(=O)c2ccc(Cn3cc(Cl)cn3)cc2)c1 | 16.5
CCN(Cc1ccncc1)C(=O)C1CCC(=O)N(Cc2ccc(Cl)cc2)C1 (centres unmarked) | -26.8
O=C(Cn1nc(Cl)nc1Cl)c1ccc2c(c1)OCCO2 | -1.69
Cn1nc(C(C)(C)C)c([N+](=O)[O-])c1C(=O)Nc1ccc(Br)cc1 | 19.8
COc1ccc(-n2nc(C(=O)c3cccs3)cc(-c3nc4ccccc4[nH]3)c2=N)cc1 | -4.53
Cc1[nH]c2ccc(F)cc2c1CCN(Cc1cccnc1)C(=S)Nc1ccccc1 | -23.5
Cc1cc(C)n2nc(-c3ccccc3)cc2n1 | 5.54
O=C(O)C1CSC2(c3ccc(F)cc3)CCC(=O)N12 (centres unmarked) | 19.4
COc1cc(CCC(=O)Nc2ccc(C)c(S(=O)(=O)N3CCCCCC3)c2)cc(OC)c1OC | -6.5
O=[N+]([O-])c1ccccc1S(=O)(=O)N1CCN(Cc2cc3c(cc2O)OCO3)CC1 | 57.4
CN(C)C(CNC(=O)c1ccc(S(=O)(=O)Nc2cccc(C(F)(F)F)c2)cc1)c1ccco1 (centres unmarked) | -16.9
